Data: PubChem BioAssay AID1346428 (National Center for Advancing Translational Sciences (NCATS), 2018)
Where “and” joins values, the source holds several entries; their conditions need not be identical. Identical values can stand only once. In all, about 48,000 compounds went through this assay and about 1,200 (2.5%) were called active. About 2% were inconclusive and are not listed.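 Rule for the calls: active = activation of at least 60% and not above a set upper limit (about 1 call in 100 departs from these limits); inconclusive = activation of 40% to 60%, or above that upper limit; inactive = activation under 40%.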 The list shows a part of the results.

Target: Probable G-protein coupled receptor 32 (Homo sapiens) (UniProt O75388)
Chain of UniProt O75388 (O75388 whole entry, looked up): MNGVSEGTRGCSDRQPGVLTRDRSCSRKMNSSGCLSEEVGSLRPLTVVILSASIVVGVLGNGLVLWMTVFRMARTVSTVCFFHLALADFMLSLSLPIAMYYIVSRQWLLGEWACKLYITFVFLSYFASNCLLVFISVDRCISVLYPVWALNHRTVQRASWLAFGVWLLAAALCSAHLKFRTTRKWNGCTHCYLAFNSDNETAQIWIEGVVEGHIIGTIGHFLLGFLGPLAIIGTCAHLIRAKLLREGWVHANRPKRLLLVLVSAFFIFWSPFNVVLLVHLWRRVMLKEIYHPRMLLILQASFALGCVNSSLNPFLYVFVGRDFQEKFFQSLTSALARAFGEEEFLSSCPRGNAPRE
Assay: qHTS for Agonists of Human Resolvin D1 Receptor DRV1; note: 0% is about no effect
Settings: CHO-K1 GPR32 beta-arrestin PathHunter luminescence, 90 min; at 76.9 µM; active compounds read high; zero percent set by DMSO-only wells
Summary of the method: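 PathHunter enzyme-fragment complementation, CHO-K1 GPR32 stable line; 2,500 cells/well, overnight attach; cpd 90 min 37 °C 5% CO2; detection reagent 1 h RT; chemiluminescence. DMSO = EC0.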

activation, inactive:
Cc1cc(C)cc(NS(=O)(=O)c2ccc(-c3cc(C)no3)cc2)c1 -8.63%
Cc1ccc(CCNC(=O)c2ccc3c(c2)N(Cc2cc(C)ccc2C)C(=O)c2ccccc2S3=O)cc1 (stereo not given) -7.33%
COc1ccc2c(c1)NC(c1ccc(F)cc1)=NC(c1ccc(F)cc1)=N2 -30.8%
CCOC(=O)c1cccc(NS(=O)(=O)c2cc(Br)cc3c2N(C(=O)C2CC2)CC3)c1 -4.63%
COc1ccc(NC(=O)C2CCN(C3=NS(=O)(=O)C(c4ccc(C)c(C)c4)=C3C)CC2)cc1OC 11.4%
COc1cccc(N2CCN(C(=O)CN3CCSc4ccc(S(=O)(=O)N(C)C)cc43)CC2)c1 -13.5%
COC(=O)c1ccc(OCC2c3cc(OC)c(OC)cc3CCN2C(=O)c2cccc(C)c2)cc1 (stereo not given) -9.63%
COc1ccc(CNC(=O)CCS(=O)(=O)c2cc(Br)cc3c2N(C(=O)C2CC2)CC3)cc1 -6.16%
CCCCN(Cc1ccccc1)S(=O)(=O)c1ccc2c(c1)CCN2C(=O)C1CCC1 -26.4%
COc1cccc(CNC(=O)Cn2c(=O)n3nc(-c4cccc(C)c4)nc3c3ccccc32)c1 14.9%
COc1ccc(Nc2ncnc3onc(C)c23)cc1Cl 6.26%
CCCSCCCNC(=O)C1CCCN(C(=O)c2cnn(-c3ccccc3)c2-n2cccc2)C1 (stereo not given) -9.71%
O=C(Cn1nc(Cc2cccnc2)c2ccccc2c1=O)N1CCN(c2ccc(F)cc2)CC1 -28.2%
O=C(O)C1CCCNC1 (stereo not given) 6.22%
Cc1ccc2occ(CC(=O)Nc3c(C)cccc3C)c2c1 -12.5%
CCCN(C(=O)c1ccc2c(=O)n3c(nc2c1)CCCCC3)c1cccc(Cl)c1 -2.89%
Cc1cc(C)cc(NCc2nnc3n2CCCCC3)c1 13.4%
Cc1cccc(C)c1NC(=O)C(C)N (stereo not given) 0.321% and 4.98%
Cc1cccc(C)c1NC(=O)CCSCCc1ccccn1 2.01%
COc1cn(CC(=O)Nc2ccc(C)cc2)c(CN2CCCCC2)cc1=O -14.8%
COc1ccc(OCC(=O)N2CCN(C(=O)c3ccc(OC)c(OC)c3)CC2)cc1 -0.229%
COc1ccccc1CN1CCC(CNC(=O)c2cnn(-c3cccc(Cl)c3)c2C2CCN(C(=O)OC(C)(C)C)CC2)CC1 -14.8%
Cc1c(NS(=O)(=O)c2ccc(C(C)(C)C)cc2)c(=O)n(-c2ccccc2)n1C -10.1%
O=C(CCNS(=O)(=O)c1ccc2c(c1)CCN2C(=O)C1CC1)Nc1ccc(Cl)cc1 45.6%
CC(=O)N1CCc2cc(Br)cc(S(=O)(=O)CCC(=O)NCc3ccc(F)cc3)c21 -0.928%
Cc1cc2c(cc1S(=O)(=O)NCc1ccc(F)cc1)OCC(=O)N2 16.4%
Cc1cccc(NC(=O)CN2C(=O)C(c3ccc(F)cc3)=NC23CCCCCC3)c1C -8.45%
COc1ccc(NC(=O)CN2C(=O)COc3ccc(S(=O)(=O)NC4CCCC4)cc32)cc1OC -9.37%
O=C(c1ccccc1)n1nc(-c2ccc(Cl)cc2)nc1NCc1ccco1 -2.93%
CCOC(=O)c1cc2c(=O)n3ccccc3nc2n(CCOC)c1=NC(=O)c1c(-c2c(F)cccc2Cl)noc1C -2.15%
CSc1ccc(CCNC(=O)Cn2ncc3c([nH]c4ccccc43)c2=O)cc1 -10.6%
CCC(C(=O)NC(=O)NC(C)=O)c1ccccc1 (stereo not given) -4.77%
Cc1ccc(-n2ncc3c(NC4CCCCC4)ncnc32)cc1C 3.7%
CN(Cc1ccccc1)C(=O)c1ccc(CSc2nc3cccnc3n2Cc2ccccc2)cc1 -3.39%
Cc1cccc(N2CCN(C(=O)Cc3c(C(=O)O)c(C)cn3C)CC2C)c1 (stereo not given) 1.42%
COc1ccc(N2CCN(C(=O)C3CCCN(S(=O)(=O)c4ccc5c(c4)oc(=O)n5C)C3)CC2)cc1 (stereo not given) 14.2%
CCC(=O)NCCc1sc2nc(-c3ccc(OC)cc3)nn2c1C 31.6%
COc1ccccc1CCNC(=O)C1(c2cccs2)CCOCC1 13.6%
CCc1cccc(NC(=O)CCn2nc(C)cc2C)c1 -10.1%
COC(=O)c1c(NC(=O)COc2ccc(C(C)C)cc2)sc2c1CCCC2 28.5%
COc1ccc(C2CC(=O)Nc3c2c(C)nn3-c2nc(C)cc(C)n2)c(OC)c1OC (stereo not given) 4.94%
CCCCc1cc2ccccc2c(OCCN(C)C)n1 30.1%
COc1ccc(OC)c(NC(=O)c2nnn(CC(=O)Nc3ccc(C(C)C)cc3)c2N)c1 -0.421%
COc1ccc(NC(=O)Cn2cnc3c(nc4n3CCCCC4)c2=O)cc1Cl -13%
COc1ccc(CCNC(=O)c2ccc3nc(CCc4ccccc4)oc3c2)cc1OC 5.66%
COc1ccc(NC(=O)Cn2c(=O)oc3cc(S(=O)(=O)N4CCCC4)ccc32)cc1OC 9.83%
CCCS(=O)(=O)Nc1cccc(-c2cn3ccsc3n2)c1 18.5%
Cc1cccc(CSc2nc3ccncc3n2CC(=O)N(C)C2CCCCC2)c1 -7.25%
Cc1ccc(NC(=O)c2ccc(-c3ccccc3)s2)cc1 -3.77%
Cc1ccc(N2C(=O)CSC23C(=O)N(CC(=O)NCCc2ccccc2)c2ccccc23)cc1 (stereo not given) -1.45%
CCC1CN(C(=O)N2CCC(C(=O)NCc3cccs3)CC2)c2ccccc2O1 (stereo not given) -6.92%
COc1ccc(N2CCN(C(=O)c3noc4c3CCCCC4)CC2)cc1 -19.9%
O=c1oc2c(CN3CCOCC3)c(O)ccc2cc1-c1ccccc1 -36.5%
CC(=O)c1ccc(NC(=O)c2sc(-n3nc(C)c(Cc4ccc5c(c4)OCO5)c3C)nc2C)cc1 -6.65%
CCC1CCCCN1CCCNC(=O)c1ccc2c(c1)N(Cc1cccc(Cl)c1)C(=O)c1ccccc1S2(=O)=O (stereo not given) -44.8%
O=C(Nc1ccc2oc(-c3ccc(Br)cc3)nc2c1)c1cc2ccccc2o1 13.2%
COc1cccc(CNCc2c(C(=O)O)n(Cc3ccc(C)cc3)c3cc(C)ccc23)c1OC 9.1%
COc1ccc(-c2nc3ccccc3o2)cc1NC(=O)c1cc(Br)ccc1OC 0.332%
COc1ccc(C)cc1NC(=O)NCCn1nnc2cc(S(=O)(=O)N(C)C)ccc21 -9.71%
Cc1nnc(NC(=O)CSc2nc3c([nH]c4ccccc43)c(=O)n2-c2cccc(Cl)c2)s1 -15.9%
CCOC(=O)c1ccccc1NC(=O)c1sc2nc(-c3ccc(F)cc3)cn2c1C -15%
CC(C(=O)O)c1ccc2c(c1)[nH]c1ccc(Cl)cc12 (stereo not given) 17.9%
COc1ccc(CCNC(=O)c2cnc3sc(N4CCCCCC4)nn3c2=O)cc1 6.15%
Cc1ccc(C(=O)OCc2cc(=O)n3nc(CC(C)C)sc3n2)cc1 -11.2%
O=C(Cn1cc(S(=O)(=O)Cc2ccccc2F)c2ccccc21)Nc1ccc(F)c(Cl)c1 10.7%
COc1ccc(CNc2ncnc3c2c(-c2ccccc2)cn3-c2ccc(C)c(Cl)c2)cc1 -25.4%
COc1ccc2c(CNCc3ccco3)c(C(=O)O)n(Cc3cccc(F)c3)c2c1 -2.21%
COc1ccc(NC(=O)Cn2c(=O)n(-c3ccc(OC)cc3)c(=O)c3sc4ccccc4c32)cc1 2.1%
Cn1c(NCCCO)nc2c1c(=O)n(Cc1cccc(F)c1)c(=O)n2C -12%
COc1ccc(C(=O)Nc2ccc(-c3nc4ccccc4s3)c(Cl)c2)cc1Cl 21.8%
CCCN(CCC)C(=O)C1CCN(c2cc(C)nc3c(-c4ccc(Cl)cc4)c(C)nn23)CC1 -4.1%
COc1cc(C(=O)Nc2cc(C)c(O)c(-c3nc4ccccc4s3)c2)cc(OC)c1OC -1.16%
Cc1cc2nc(-c3ccc(OCc4ccccc4F)cc3)cc(C(F)(F)F)n2n1 -6.67%
CCCc1nn2c(=O)cc(COC(=O)c3ccc4c(c3)OCO4)nc2s1 27%
Cc1ccc(C)c(NC(=O)c2oc(=O)c3ccccc3c2-c2ccccc2)c1 -1.33%
Cc1ccc(-c2c(C(=O)Nc3ccccc3F)oc(=O)c3ccccc23)cc1 -21%
Cn1c(NCCN)nc2c1c(=O)n(Cc1ccccc1)c(=O)n2C -32.6%
Cc1ccc(C)c(Cn2c(SCC(=O)NCc3ccccc3)nc3ccccc32)c1 -29%
CCOC(=O)c1cccc(NC(=O)C2=C(C)C(=O)OC23CCCCC3)c1 -24.2%
Cc1ccc(C)c(N2CCN(C(=O)Cn3cnc4nc5c(cc4c3=O)CCCC5)CC2)c1 5.38%
COc1ccccc1C(=O)NC(=O)Nc1ccc(-c2cc(C(F)(F)F)nn2-c2ccccc2)cc1 -5.62%
CCc1ccc(N(CC)C(=O)c2cn(C)c(=O)c3cc(OC)c(OC)cc23)cc1 -4.77%
NS(=O)(=O)c1ccc(N2CCCCS2(=O)=O)cc1 -3.77%
CCOc1ccc2c(c1)NC(c1ccc(OCC)c(OCC)c1)=NC(c1ccc(F)cc1)=N2 -35%

activation, active:
O=C(NCCc1nc2ccccc2n1Cc1ccc(Cl)cc1)c1ccccc1 80.5%
